# In the supplement of paper PMC12217912:
# The other results are listed elsewhere or left out. The full chains were built here from the parent and the listed change. Inactive controls read about 0.05.
# B1: TEV protease; numbered along this chain (parent)
# chain: MGESLFKGPRDYNPISSSICHLTNESDGHTTSLYGIGFGPFIITNKHLFRRNNGTLVVQSLHGVFKVKDTTTLQQHLVDGRDMIIIRMPKDFPPFPQKLKFREPQREERICLVTTNFQTKSMSSMVSDTSCTFPSGDGIFWKHWIQTKDGQCGSPLVSTRDGFIVGIHSASNFTNTNNYFTSVPKNFMELLTNQEAQQWVSGWRLNADSVLWGGHKVFMVKPEEPFQPVKEATQL
# Variants of: B1
# Assay: raw area under fraction-flipped curve 0-4 h after induction (AUC4h, not background-subtracted), DNA-recorder readout of cleavage of the substrate (dimensionless); higher = more cleavage of the substrate by the protease variant
# Conditions: temperature: 34 °C; time window: 0-4 h after rhamnose induction
# Method: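 In vivo DNA recorder in E. coli TOP10(DE3) ΔrhaA at 34 °C. Each TEVp single-site mutant (parent TEVp 0) is paired with a single-site variant of the 7-mer TEVs (canonical ENLYFQ|S). The substrate sits between flexible linkers in a Bxb1-sfGFP-TEVs-SsrA fusion, so cleavage stabilises Bxb1 and speeds flipping of a recombination array, read by NGS. The value is the raw area under the fraction-flipped curve over 0-4 h after rhamnose induction (AUC4h), with ≥20 reads per time point. It is not background-subtracted; inactive controls average about 0.047.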
# 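Further: Bxb1 expression induced with 0.2% (w/v) L-rhamnose at OD600 near 0.5, cultures sampled hourly, flipped fraction per protease–substrate barcode pair counted by paired-end Illumina sequencing.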
Variant,area with substrate ENLYAQS,area with substrate ENLYCQS,area with substrate ENLYDQS,area with substrate ENLYEQS,area with substrate ENLYGQS,area with substrate ENLYKQS,area with substrate ENLYLQS,area with substrate ENLYMQS,area with substrate ENLYNQS,area with substrate ENLYPQS,area with substrate ENLYQQS,area with substrate ENLYRQS,area with substrate ENLYTQS,area with substrate ENLYWQS,area with substrate ENLYHQS,area with substrate ENLYSQS,area with substrate ENLYVQS,area with substrate ENLYIQS,area with substrate ENLYYQS
MGESLFKGPRDYNPISSSICHLTNESDGHTTSLYGIGFGPFIITNKHLFRRNNGTLVVQSLHGVFKVKDTTTLQQHLVDGRDMIIIRMPKDFPPFPQKLKFREPQREERICLVTTNFQTKSMSSMVSDTSCTFPSGDGIFWKHWIQTKDGQCGSPLVSTRDGFIVGIHSASNFTNTNNYFTSVPKNFMEKLTNQEAQQWVSGWRLNADSVLWGGHKVFMVKPEEPFQPVKEATQL [L190K],0.0722,0.0848,0.0629,0.0758,0.0768,0.0703,0.0723,0.0835,0.0666,0.0743,0.0496,0.0562,0.0491,0.0633,–,–,–,–,–
MGESLFKGPRDYNPISSSICHLTNESDGHTTSLYGIGFGPFIITNKHLFRRNNGTLVVQSLHGVFKVKDTTTLQQHLVDGRDMIIIRMPKDFPPFPQKLKFREPQREERICLVTTNFQTKSMSSMVSDTSCTFPSGDGIFWKHWIQTKDGQCGSPLVSTRDGFIVGIHSASNFTNTNNYFTSVPKNFMELLTNQEAQQWVSGHRLNADSVLWGGHKVFMVKPEEPFQPVKEATQL [W203H],0.0456,0.055,0.0501,0.0613,0.0654,0.0673,0.0652,0.075,0.073,0.0624,0.0599,–,0.0512,0.0612,0.0613,0.0381,0.0521,–,–
MGESLFKGPRDYNPISSSICHLTNESDGHTTSLYGIGFGPFIITNKHLFRRNNGTLVVQSLHGVFKVKDTTTLQQHLVDGRDMIIIRMPKDFPPFPQKLKFREPQREERICLVTTNFQTKSMSSMVSDTSCTFPSGDGIFWKHWIQTKDGQCGSPLVSTRDGFIVGIHSASNFTNTNNYFTSVPKNFMELLTNQEAQQWVSGTRLNADSVLWGGHKVFMVKPEEPFQPVKEATQL [W203T],0.0603,–,0.0565,–,–,0.0755,0.0569,0.0787,0.0607,0.0565,0.0699,0.0568,0.0655,0.036,0.059,–,0.078,0.0604,–
MGESLFKGPRDYNPISSSICHLTNESDGHTTSLYGIGFGPFIITNKHLFRRNNGTLVVQSLHGVFKVKDTTTLQQHLVDGRDMIIIRMPKDFPPFPQKLKFREPQREERICLVTTNFQTKSMSSMVSDTSCTFPSGDGIFWKHWIQTKDGQCGSPLVSTRDGFIVGIHSASNFTNTNNYFTSVPKNFMELLTNQEAQQWVSGWYLNADSVLWGGHKVFMVKPEEPFQPVKEATQL [R204Y],0.0757,0.0975,0.0636,0.103,0.0698,0.0476,0.0965,0.0867,0.0727,0.0834,0.0583,0.0695,0.0778,0.079,0.0722,0.087,–,0.123,0.0832
MGESLFKGPRDYNPISSSICHLTNESDGHTTSLYGIGFGPFIITNKHLFRRNNGTLVVQSLHGVFKVKDTTTLQQHLVDGRDMIIIRMPKDFPPFPQKLKFREPQREERICLVTTNFQTKSMSSMVSDTSCTFPSGDGIFWKHWIQTKDGQCGSPLVSTRDGFIVGIHSASNFTNTNNYFTSVPKNFMELLTNDEAQQWVSGWRLNADSVLWGGHKVFMVKPEEPFQPVKEATQL [Q194D],0.085,0.0839,–,0.0682,–,–,0.105,0.0849,0.0764,0.0727,–,0.0539,–,0.0916,0.0699,–,0.141,–,0.0462
MGESLFKGPRDYNPISSSICHLTNESDGHTTSLYGIGFGPFIITNKHLFRRNNGTLVVQSLHGVFKVKDTTTLQQHLVDGRDMIIIRMPKDFPPFPQKLKFREPQREERICLVTTNFQTKSMSSMVSDTSCTFPSGDGIFWKHWIQTKDGQCGSPLVSTRDGFIVGIHSASNFTNTNNYFTSVPKNSMELLTNQEAQQWVSGWRLNADSVLWGGHKVFMVKPEEPFQPVKEATQL [F187S],0.0614,–,0.0705,0.0534,0.0618,0.0397,–,0.0581,0.076,–,0.0592,0.0569,0.0737,0.0713,0.0692,–,0.0643,0.0756,–
MGESLFKGPRDYNPISSSICHLTNESDGHTTSLYGIGFGPFIITNKHLFRRNNGTLVVQSLHGVFKVKDTTTLQQHLVDGRDMIIIRMPKDFPPFPQKLKFREPQREERICLVTTNFQTKSMSSMVSDTSCTFPSGDGIFWKHWIQTKDGQCGSPLVSTRDGFIVGIHSASNFTNTNNYFQSVPKNFMELLTNQEAQQWVSGWRLNADSVLWGGHKVFMVKPEEPFQPVKEATQL [T181Q],0.0533,–,0.0585,–,0.054,0.0573,–,0.0644,–,0.0561,–,–,–,0.0503,–,0.0667,–,–,–
MGESLFKGPRDYNPISSSICHLTNESDGHTTSLYGIGFGPFIITNKHLFRRNNGTLVVQSLHGVFKVKDTTTLQQHLVDGRDMIIIRMPKDFPPFPQKLKFREPQREERICLVTTNFQTKSMSSMVSDTSCTFPSGDGIFWKHWIQTKDGQCGSPLVSTRDGFIVGIHSASNFTNTNNYFTSVPKNFMELLTNQEAQQWVMGWRLNADSVLWGGHKVFMVKPEEPFQPVKEATQL [S201M],0.0823,0.0664,0.0618,0.0701,0.0914,0.0587,–,0.0824,0.0605,0.0632,–,0.0549,0.0743,0.081,0.0843,0.0922,0.117,0.108,–
